Among the data in PubChem BioAssay AID1240 (Sanford-Burnham Center for Chemical Genomics, 2008) are displacement values, retold here.

Among all 50,000 compounds or so, about 800 (1.6%) showed an effect of 50% or more. Some of the results follow.

This test deals with Bcl-2-like protein 10 (Homo sapiens) (UniProt Q9HD36). Kind of test: Phenotype converters, Bcl-B/TR3 peptide binding displacement, primary biochemical FP (AID 1240).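 Note: 0% = Bcl-B with tracer peptide and DMSO and 100% = tracer peptide lacking Bcl-B.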 Particulars: GST-Bcl-B / FITC-TR3 peptide fluorescence polarization; stronger effect = higher value; compound at 3.75 mg/L. In general terms: Polarisation of emitted light reports the rotation of a fluorescent probe.
Chain of UniProt Q9HD36 (Q9HD36 whole entry, looked up): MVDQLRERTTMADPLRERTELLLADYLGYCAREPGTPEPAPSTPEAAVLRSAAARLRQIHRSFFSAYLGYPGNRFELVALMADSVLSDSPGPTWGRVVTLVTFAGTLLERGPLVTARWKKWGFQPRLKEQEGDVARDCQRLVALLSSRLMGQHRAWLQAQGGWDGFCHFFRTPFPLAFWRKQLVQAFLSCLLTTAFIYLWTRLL
As to `CCOc1cc(OCC)cc(C(=O)Nc2cc3nn(-c4ccc(OC)cc4)nc3cc2C)c1`, the displacement was 8.8%. As to `COc1cc(OC)c(OC)cc1CN1CCN(C2CCCC2)CC1`, the displacement came to 5%. Next, `O=c1ccc([N+](=O)[O-])ccc1Nc1ccccn1`: 58.1%. Next, `O=C(/C=C/c1ccccc1OC(=O)c1cccnc1)c1ccccc1`: -10.4%; `CCOc1ccccc1NS(=O)(=O)c1ccc(OC)c(OC)c1`: -10.6%; `O=C(NC(=S)N1CCCc2ccccc21)c1ccc([N+](=O)[O-])cc1`: 19.6%. `O=S(=O)(Nc1ccc(O)cc1)c1cc(Cl)ccc1Cl`: the displacement is -0.2%. In the case of `CC(=O)C1=C(O)C(=O)N(CCN2CCNCC2)C1c1ccc(Br)cc1` (stereo not given), the displacement came to 3%. Regarding `CCCc1ccc(OCC(=O)Nc2ccc(N3CCOCC3)cc2)cc1`, the displacement worked out at 4.4%. With `O=C(CC1(C(F)(F)F)NN=C(c2ccccc2)S1)c1ccccc1` (stereo not given), the displacement is -15.6%. As for `CCOC(=O)C1=C(C)NC2=C(C(=O)CCC2)C1c1cccc(Cl)c1` (stereo not given), the displacement was 1.2%. Next, `CCCCN(C)Cc1c(C)[nH]c2c(ccc3ccccc32)c1=O`: 9.7%.

Regarding `COc1cc(NC(=O)COc2ccc(Br)cc2)ccc1NC(=O)c1ccco1`, the displacement was -10.4%.

With `O=C(COc1ccc2ccccc2c1)Nc1ccc(Br)c(Cl)c1`, the displacement is -0.5%. Turning to `COc1ccc(NS(=O)(=O)c2ccc(NC(=S)NC(=O)c3sc4cc(F)ccc4c3Cl)cc2)nn1`, the displacement came out at 9.5%. In the case of `Cc1nn(-c2ccc(I)cc2)c(C)c1-c1cccc([N+](=O)[O-])c1` it was 14.2%; in that of `OC(Cc1ccc2ccccc2n1)C(Cl)(Cl)Cl` (stereo not given), -5.5%. Next, `O=[N+]([O-])c1ccc2c(c1)S(=O)(=O)N=C2N1CCCCC1`: -7.3%; `O=C(/C=C/c1ccccc1)Nc1ccc(S(=O)(=O)N2CCCC2)cc1`: -6.4%; `COc1cc(NC(=O)c2cc3n(n2)C(C(F)(F)F)CC(c2ccc(Cl)cc2)N3)cc(OC)c1OC` (stereo not given): 3.9%. Next, `O=C1NC(=O)N(c2ccc(Br)cc2)C(=O)/C1=C/c1cccc(O)c1`: 6%.

As to `COc1ccc(N=C(C)C2=C(O)CSC2=O)cc1`, the displacement was -2.1%.

As for `CCC(=O)Nc1cccc(-c2nc3cc(Cl)ccc3o2)c1C`, the displacement is -34.7%.

As for `O=[N+]([O-])c1ccc(C2CNC(c3ccccc3O)O2)cc1` (stereo not given), the displacement was 0.4%. Next, `Cc1ccc2c(c1)NC(c1cccs1)C1=C(CC(c3ccccc3)CC1=O)N2` (stereo not given): 2.7%. In the case of `COC(=O)c1cc(NC(=O)S(=O)(=O)c2ccc(C)cc2)cc(C(=O)OC)c1` it was 2%.

For `COc1cc(C(=O)Nc2ccc(Oc3ccc(NC(=O)c4cc(OC)c(OC)c(OC)c4)cc3)cc2)cc(OC)c1OC`, the displacement was -3%. Next, `O=S1(=O)C=CC(Nc2cccc(C(F)(F)F)c2)C1` (stereo not given): 14%. With `CCOC(=O)c1ccc(N2NC(=O)/C(=C/c3ccc(O)c(OCC)c3)C2=O)cc1`, the displacement is 12.4%. In the case of `COc1cccc(OC)c1C(=O)Nc1ccc(C(=O)Oc2ccccc2)c(O)c1` it was -9.1%; in that of `CC(=O)N1CCN(Cc2ccccc2)CC1`, 3.8%; in that of `Cc1ccc([N+](=O)[O-])cc1-c1[nH]c(-c2cccc(O)c2)nc1-c1ccccc1`, -1.6%. Take `Cc1ccc(OCC(=O)Nc2cccc3nsnc23)c(C)c1`: the displacement was found to be 26.1%. Next, `O=C(Nc1ccc(N2CCCCC2)c(Cl)c1)c1cccc2ccccc12`: 21.2%; `COc1ccc(C(=O)Nc2nnc(Cc3ccc(OC)c(OC)c3)s2)cc1`: -0.5%; `O=C(Nc1cccc2ccccc12)c1cnccn1`: 8.4%. Next, `O=C(c1ccco1)N(Cc1ccccc1)c1cccc([N+](=O)[O-])c1`: 1.4%; `CC(C)(C)c1ccc(-c2nnc(NC(=O)Nc3ccccc3)s2)cc1`: 24.1%; `CCOC(=O)c1c(NC(=O)c2cccc(OC)c2)sc(C(=O)Nc2ccccc2OC)c1C`: -4.4%.

Consider `COc1ccc(C(=O)N2CCCc3ccccc32)cc1OC`, for which the displacement was -3.3%. Next, `COc1ccc(OC)c(/C=C2\C(=O)N(c3ccc(S(N)(=O)=O)cc3)N=C2C)c1`: 2.4%; `COc1ccc(S(=O)(=O)N(CC(=O)NCCc2ccccc2)Cc2ccccc2)cc1`: -0.6%. For the molecule `CS(=O)(=O)N(Cc1ccc(C(=O)Nc2ccc(F)c(Cl)c2)cc1)c1ccccc1`, the displacement was found to be 5.2%. In the case of `C=CCn1c(SCC(=O)N2c3ccccc3C(C)(c3ccccc3)CC2(C)C)nnc1-c1ccncc1` (stereo not given) it was 1.9%; in that of `Cc1cc(C)c(-n2c(O)c(/C=C3\C=Nc4ccccc43)c(=O)[nH]c2=O)c(C)c1`, -4.1%. In the case of `Cc1ccc(N2C(=O)CC(NCCc3ccccn3)C2=O)cc1` (stereo not given) it was 0.1%; in that of `COc1ccc(-c2c(C)n([O-])c3c([n+]2=O)CCC3)cc1`, 3%; in that of `CCOc1ccc(C(=O)Nc2ccc(I)cc2Cl)cc1[N+](=O)[O-]`, -4.5%. In the case of `c1ccc(OCCN2CCN(c3ncnc4c3cnn4-c3ccccc3)CC2)cc1` it was -14.9%; in that of `CC1=NN(c2ccccc2)C(=O)/C1=C/c1ccc(-c2ccc(C(=O)O)cc2)o1`, 15.9%. Take `Cc1ccc2c(Cl)c(C(=O)NCC3CCCO3)sc2c1` (stereo not given): the displacement is -20.5%. As to `COc1ccc(S(=O)(=O)Nc2cccnc2)cc1`, the displacement stood at 13%. Take `COc1ccc(-n2cnc3c(sc4nccc(N(C)C)c43)c2=O)cc1`: the displacement is -25.5%.

As for `Cc1ccc2nc(-c3sc(=S)n(-c4ccccc4)c3N)[nH]c2c1`, the displacement is -38.4%. Next, `O=[N+]([O-])c1cccc(C2N(c3ccccc3)CCN2c2ccccc2)c1`: -4.1%; `O=C(NNc1nc(-c2ccccc2)c2cc(Cl)ccc2n1)c1ccc(Cl)cc1Cl`: 13.6%. In the case of `Fc1ccccc1OCCCCCCN1CCCC1`, the displacement was found to be 15.9%. In the case of `COC(=O)c1sccc1NC(=O)c1ccccc1C` it was -13.5%. In the case of `O=[N+]([O-])c1ccc(NCCCNS(=O)(=O)c2ccccc2)cc1` it was 9.8%; in that of `Cc1ccc(N2C(=O)CC(N3CCOCC3)C2=O)cc1` (stereo not given), 6%. In the case of `O=C1C(=O)N(CN2CCCCC2)C2C=CC=CC12` (stereo not given) it was 17.2%; in that of `O=C1C/C(=C/NCc2ccccc2)C(=O)N1`, 9.6%. Consider `O=C1CNC(=O)c2c(ncn2Cc2ccccc2)N1`, for which the displacement was -13.2%.

With `COc1ccc(C2(CCN)CCOC(C)(C)C2)cc1` (stereo not given), the displacement was -7.2%. In the case of `C=C(C)CSc1nnc2nc(C)cc(C)n12` it was 2.9%.

For `CCOC(=O)c1ccccc1NC(=O)C(C)Oc1ccccc1` (stereo not given), the displacement came out at 13.1%. As for `O=[N+]([O-])c1cc2c(c([N+](=O)[O-])c1)Nc1ccccc1N=C2c1ccc(Br)cc1`, the displacement was -7.1%. `CCN1C(=O)/C(=C/c2cccc(OC(F)(F)C(F)F)c2)SC1=S`: the displacement turned out to be 14.1%. Next, `N#Cc1ccccc1NC(=O)COc1ccccc1`: 14.4%. In the case of `C=CCn1c2ccccc2n2cc(-c3ccc(C)cc3)nc12` it was -17%.
